Results taken from PubChem BioAssay AID1476 (National Center for Advancing Translational Sciences (NCATS), 2009).
The whole screen tested about 200,000 compounds, of which about 4,500 (2.2%) were called active. The shares of active, inactive and inconclusive entries below differ from those in the screen. The call rests on the fitted dose curve; in most records, active means well fitted inhibition curve with a large enough effect; inconclusive means small, poorly fitted or top-dose-only effect, or effect the other way; inactive means flat fitted curve, though single readings scatter. A potency beside an inconclusive call is a rough fit, not a confirmed value.

The compounds below were run against Cruzipain (Trypanosoma cruzi) (UniProt P25779) (assay: qHTS Assay for Promiscuous and Specific Inhibitors of Cruzain (without detergent)). Settings: purified cruzain, Z-FR-AMC fluorescence, no detergent.
Method in brief: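 Detergent-free condition (0.00005% Triton X-100) in acetate buffer pH 5.5 with DTT. 1.5 nM enzyme and compound were pre-mixed 15 min, then 2 uM Z-FR-AMC substrate added; reaction progress from fluorescence change between first and third reads (60 s).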
Further: nearly all actives have a fitted effect of over 40% in size.
Potency means the concentration at half of the fitted maximal effect; tags describe the fitted curve by direction and shape.
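Wherever max response, negative = inhibition is given: plate controls were enzyme without inhibitor for no effect and buffer without enzyme for full effect.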

UniProt P25779, sequence (P25779 whole entry, looked up): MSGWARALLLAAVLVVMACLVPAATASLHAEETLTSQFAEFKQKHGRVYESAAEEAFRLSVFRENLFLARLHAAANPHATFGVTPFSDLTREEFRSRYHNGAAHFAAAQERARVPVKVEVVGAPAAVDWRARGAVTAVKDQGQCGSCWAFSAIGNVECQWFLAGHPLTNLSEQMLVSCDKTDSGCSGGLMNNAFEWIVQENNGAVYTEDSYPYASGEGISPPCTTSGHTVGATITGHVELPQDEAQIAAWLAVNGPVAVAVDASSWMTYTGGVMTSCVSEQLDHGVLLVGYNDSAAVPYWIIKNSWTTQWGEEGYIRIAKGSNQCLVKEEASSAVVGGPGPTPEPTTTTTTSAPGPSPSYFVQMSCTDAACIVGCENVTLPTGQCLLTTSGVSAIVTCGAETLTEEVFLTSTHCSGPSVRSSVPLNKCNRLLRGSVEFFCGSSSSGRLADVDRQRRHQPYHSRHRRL

SMILES	Potency	max response, negative = inhibition
Cc1cccc(S(=O)(=O)N2CN(Cc3ccco3)c3nc4ccccc4nc32)c1	active: 25.1 µM	–
CCOC(=O)c1ccc2nc(C)c(CCC(C)=O)c(Cl)c2c1	inconclusive: 31.6 µM [activator, single point]	–
CCn1cc2nc(SCC(=O)Nc3ccc(OC)c(OC)c3)n(Cc3ccc(Cl)cc3)c(=O)c2n1	inconclusive: 31.6 µM [activator, single point]	–
CC(=O)c1cccc(NC(=O)C2CCN(C(=O)c3cnn(-c4ccccc4)c3-n3cccc3)CC2)c1	inconclusive: 39.8 µM [activator, single point]	–
COc1ccc(NC(=O)C2CCN(c3nc(C)cc(C)n3)CC2)cc1	inconclusive: 39.8 µM [activator, single point]	–
CCCOc1cccc(C(=O)Nc2cccc(-c3nc4ncccc4o3)c2C)c1	–	inactive: 8.16%
COc1cccc(Nc2ccc3cc(S(=O)(=O)N4CCC(C)CC4)ccc3n2)c1	–	inactive: 4.25%
CC(C)Cn1cc(C(=O)NCc2cccs2)c2c3ccccc3n(C)c2c1=O	inconclusive: 10 µM [activator, partial curve]	–
Cc1nn(S(=O)(=O)c2ccc(C(C)(C)C)cc2)c(C)c1S(=O)(=O)N1CCCCCC1	inconclusive: 3.98 µM [activator, single point]	–
COC(=O)c1sccc1S(=O)(=O)N1CCN(c2cc(Cl)ccc2C)CC1	–	inactive: -5.05%
COC(=O)C(Cc1c[nH]c2ccccc12)NC(=O)COc1cccc(C)c1 (configuration not stated)	–	inactive: -1.5%
CCN(c1cccc(C)c1)S(=O)(=O)c1ccc2c(c1)CCN2C(C)=O	inconclusive: 39.8 µM [activator, single point]	–
Cc1ccc(CSC2=Nc3ccccc3C3=NC(CCC(=O)NCc4ccco4)C(=O)N23)cc1 (configuration not stated)	inconclusive: 31.6 µM [activator, single point]	–
Cc1ccc(Cl)cc1N1CCN(C(=O)c2ccc(NC(=O)c3nsc4ccccc34)cc2)CC1	active: 7.94 µM	–
CCOC(=O)C1(N(CC)CC)Sc2cc(C)ccc2NC1=O (configuration not stated)	–	inactive: -0.637%
CCOc1ccc(NC(=O)C2CC(=O)NC(=Nc3ccc(Cl)c(Cl)c3)S2)cc1 (configuration not stated)	active: 10 µM	–
Cc1ccc(-c2c3c(nc4sc(C(N)=O)c(N)c24)CCC3)cc1	–	inactive: -3.02%
N/C(=N\OC(=O)c1cccc2ccccc12)c1ccc(Br)cc1	inconclusive: 31.6 µM [activator, single point]	–
Cc1ccc(OCC(=O)Nc2cccc(-c3nc4ccccc4s3)c2)cc1	–	inactive: -26.3%
O=C(Nc1cccc(S(=O)(=O)N2CCCCC2)c1)c1ccccc1NS(=O)(=O)c1ccc(F)cc1	inconclusive: 31.6 µM [inhibitor, single point]	–
COc1ccc(C2C=C(c3ccccc3)Nc3nc(NC(=O)c4cccc([N+](=O)[O-])c4)nn32)cc1 (configuration not stated)	–	inactive: -1.18%

SMILES	Potency	max response, negative = inhibition
COc1ccc(C(=O)Nc2ccc(C(=O)OCC(=O)c3ccccc3)cc2)cc1	active: 6.31 µM	–
O=C(CSc1nnc(-c2cnccn2)n1Cc1ccco1)Nc1ccc(Br)cc1	inconclusive: 39.8 µM [activator, single point]	–
Clc1cccc(N2CCN(c3nc4ccccc4n4nnnc34)CC2)c1	active: 20 µM	–
O=C1c2ccccc2C(=O)c2c(Nc3cc4c5c(ccc6c7ccc8c9c(cc(Nc%10cccc%11c%10C(=O)c%10ccccc%10C%11=O)c(c3c56)c97)-c3ccccc3C8=O)C(=O)c3ccccc3-4)cccc21	–	inactive: 6.17%
CCCOc1ccc(Cn2c(C)nc([N+](=O)[O-])c2SCC(O)COC)cc1[N+](=O)[O-] (configuration not stated)	inconclusive: 39.8 µM [activator, single point]	–
COc1cccc(/C=C/c2nc(C#N)c(NCCc3ccccc3)o2)c1	–	inactive: 29.7%
O=C(CSc1nnc2c(n1)[nH]c1ccccc12)Nc1ccc2c(c1)OCO2	active: 25.1 µM	–
O=C(CSc1nnc(CNc2ccc(F)cc2)o1)N1c2ccccc2Sc2ccccc21	inconclusive: 39.8 µM [inhibitor, single point]	–
Cc1ccc(-c2ccc(=O)n(CC(=O)Nc3ccc(C)cc3Cl)n2)cc1	inconclusive: 39.8 µM [activator, single point]	–
Cc1cccc(CN2C(=O)N(c3ccc(C(C)C)cc3)S(=O)(=O)c3ccccc32)c1	–	inactive: 5.51%
CCCc1nnc(NC(=O)c2c(O)c3cccc4c3n(c2=O)CC4)s1	inconclusive: 25.1 µM [activator, partial curve]	–
COc1ccc(/C=C(/NC(=O)c2cccs2)C(=O)Nc2ccc(C)cc2)cc1OC	inconclusive: 31.6 µM [activator, single point]	–
CN1C(=O)[C@@H](NC(=O)c2cc3ccccc3[nH]2)N=C(c2ccccc2)c2ccccc21	inconclusive: 39.8 µM [inhibitor, single point]	–
CC(C)(CNC(=O)c1ccc([N+](=O)[O-])c(Cl)c1)CNC(=O)c1ccc([N+](=O)[O-])c(Cl)c1	inconclusive: 25.1 µM [inhibitor, single point]	–
CC1(C)CC(=O)C2=C(C1)OC(N)=C(C#N)C2c1cccc(OC(=O)c2ccco2)c1 (configuration not stated)	–	inactive: -6.89%
COc1ccc(C2Nc3ccccc3C(=O)N2Cc2ccccc2)cc1Cn1nnc2ccccc21 (configuration not stated)	inconclusive: 39.8 µM [inhibitor, single point]	–
O=C(Nc1c(C(=O)N2CCN(c3ccccc3)CC2)oc2ccccc12)c1ccc(Br)o1	inconclusive: 31.6 µM [activator, single point]	–
Nc1nc2c(ncn2C2CC(O)C(CO)O2)c(=O)[nH]1 (configuration not stated)	–	inactive: -3.93%
S=c1[nH]nc(-c2cccnc2)n1/N=C/C(Cl)=C\c1ccccc1	inconclusive: 31.6 µM [inhibitor, single point]	–
CC1(C)NC(=O)N(CCOc2cccc(Oc3ccccc3)c2)C1=O	inconclusive: 25.1 µM [activator, single point]	–
O=C(Nc1ccc(Cl)c(Cl)c1)C1CC(=O)N(c2ccc(Br)cc2)C1 (configuration not stated)	active: 20 µM	–
